Data: paper PMC4336329 (PLoS ONE, 2015)
About 2,200 (0.71%) of roughly 310,000 compounds showed an effect of 50% or more. Effects have a minus sign here. This is one part of the list.

The compounds below were run against human ether-à-go-go-related gene (hERG) potassium channel (human, UniProt Q12809) (assay: primary screen, population patch clamp on CHO cells stably expressing hERG).
Sequence of human ether-à-go-go-related gene (hERG) potassium channel (Q12809 whole entry, looked up): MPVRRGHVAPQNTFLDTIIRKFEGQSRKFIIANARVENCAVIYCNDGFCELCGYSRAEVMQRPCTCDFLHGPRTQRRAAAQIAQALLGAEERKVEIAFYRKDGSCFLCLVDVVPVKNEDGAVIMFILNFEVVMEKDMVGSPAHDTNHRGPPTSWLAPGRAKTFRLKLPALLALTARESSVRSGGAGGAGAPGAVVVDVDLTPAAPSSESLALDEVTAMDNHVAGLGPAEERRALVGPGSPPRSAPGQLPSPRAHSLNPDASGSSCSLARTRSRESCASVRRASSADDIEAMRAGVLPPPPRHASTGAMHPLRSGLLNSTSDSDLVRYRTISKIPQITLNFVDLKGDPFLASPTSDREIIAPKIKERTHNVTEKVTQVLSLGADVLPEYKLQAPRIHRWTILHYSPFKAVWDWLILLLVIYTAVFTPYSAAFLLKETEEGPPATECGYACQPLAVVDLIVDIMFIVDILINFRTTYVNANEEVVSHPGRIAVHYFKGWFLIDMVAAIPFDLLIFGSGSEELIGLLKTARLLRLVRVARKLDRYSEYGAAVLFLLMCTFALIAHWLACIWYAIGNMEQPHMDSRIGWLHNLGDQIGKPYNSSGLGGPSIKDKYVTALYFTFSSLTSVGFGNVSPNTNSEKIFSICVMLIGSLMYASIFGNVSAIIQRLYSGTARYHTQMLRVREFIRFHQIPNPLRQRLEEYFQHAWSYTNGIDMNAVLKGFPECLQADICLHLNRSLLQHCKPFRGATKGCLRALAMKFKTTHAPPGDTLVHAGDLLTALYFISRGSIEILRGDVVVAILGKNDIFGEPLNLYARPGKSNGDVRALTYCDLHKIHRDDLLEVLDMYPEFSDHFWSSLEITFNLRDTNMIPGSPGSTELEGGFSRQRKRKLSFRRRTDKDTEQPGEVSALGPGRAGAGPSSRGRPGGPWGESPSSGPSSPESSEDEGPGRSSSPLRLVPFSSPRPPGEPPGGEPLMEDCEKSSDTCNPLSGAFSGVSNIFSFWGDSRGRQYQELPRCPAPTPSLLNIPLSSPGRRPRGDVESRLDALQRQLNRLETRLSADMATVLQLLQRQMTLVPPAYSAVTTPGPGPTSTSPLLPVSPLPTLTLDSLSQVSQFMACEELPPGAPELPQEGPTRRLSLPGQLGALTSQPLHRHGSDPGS

| Structure (SMILES) | hERG current change (%, negative = inhibition) at 1uM [%] |
| --- | --- |
| COc1cccc(CNCc2ccc(OC)cc2OC)c1.O=C(O)C(=O)O | 9.26 |
| Cc1ccc(NC(=O)c2ncc(Cl)c(Cl)c2Cl)cc1C | 7.02 |
| CCNC(=S)Nc1ccc(C)c(S(=O)(=O)Nc2ccccc2OC)c1 | 6.96 |
| CC1(C)CC(=O)C(C(=O)/C=C/NCCc2ccccc2)C(=O)C1 | 4.59 |
| Cc1ccc(SCc2cn3ccccc3n2)cc1 | 8.82 |
| O=C1c2oc3ccc(F)cc3c(=O)c2C(c2ccccc2)N1CC1CCCO1 (centres unmarked) | 1.38 |
| COc1ccc(N2C(=S)N=C(Nc3ccccc3)C23CCCCC3)cc1 | 13.1 |
| COc1ccccc1C(=O)n1nc(-c2ccco2)nc1N | 11.9 |
| O=[N+]([O-])c1cc2c(cc1/C=N/Nc1nc(Nc3ccccc3)nc(N3CCCCC3)n1)OCO2 | 4.28 |
| O=C(OCC(=O)N1CCc2ccccc2C1)c1cccs1 | 11.7 |
| COc1cc2c(cc1OC)CN(S(C)(=O)=O)CC2 | 16.5 |
| COCC(=O)Nc1cccc(C(F)(F)F)c1 | 9.32 |
| COc1ccc(OC)c(S(=O)(=O)NCc2nc3nc(C)cc(C)n3n2)c1 | 11.8 |
| COc1cc(OC)cc(C(=O)NNC(=O)c2cc(S(=O)(=O)N3CCOCC3)ccc2F)c1 | 1.59 |
| COc1ccc(N(Cc2cc(=O)[nH]c3ccccc23)C(C)=O)cc1 | 14 |
| COc1ccc(Cn2nnnc2C(c2ccc(N(C)C)cc2)N2CCC(C(N)=O)CC2)cc1 (centres unmarked) | 0.46 |
| CC1=C(C(=O)Nc2ccccc2Cl)C(c2ccc(N(C)C)cc2)NC(=O)N1 (centres unmarked) | 4 |
| Cc1ccc(/C=N/n2c(C3CCCCC3)n[nH]c2=S)cc1 | 17.4 |
| CNC(=O)c1[nH]cnc1C(=O)Nc1ccccc1OC | 6.48 |
| CCCCNS(=O)(=O)c1ccc2nc(SCC(=O)c3ccc(C#N)cc3)[nH]c2c1 | 7.66 |
| CCCN[C@H]1CCc2nc(N)sc2C1.Cl | 13.9 |
| CCCOc1ccc(C(=O)OCC(=O)NCCc2ccc(OCC)c(OCC)c2)cc1OC | 11.9 |
| CC1=Nc2cccc3cccc(c23)N1C | 6.23 |
| CCCCC1=CC2=CC(=O)C(C)(OC(=O)CC)C(=O)C2=CN1Cc1ccco1 (centres unmarked) | -0.305 |
| CCc1ccc(NC(=O)C2C3/C=C\CCCCC32)cc1 (centres unmarked) | 25.5 |
| Nc1c(/C=C2/C=CC(=O)C(O)=C2)c(=O)nc2sc(CC(=O)N3CCCC3)nn12 | 13.3 |
